The source gives no read counts; variants with many changes may rest on few reads.
B1: CPEB3 Ribozyme (parent)
chain: UAACAGGGGGCCACAGCAGAAGCGUUCACGUCGCAGCCCCUGUCAGAUUCUGGUGAAUCUGCGAAUUCUGCUGUAUAUCUC

Variants of: B1
Assay: self-cleavage, relative activity (ratio to wild type); higher = more cleavage; in vitro, sequencing
Procedure, shortened: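 Relative activity was defined as the cleaved/total read fraction for a variant divided by the same fraction for the unmutated ribozyme. CPEB3 self-cleaving ribozyme libraries were made by rounds of error-prone PCR, barcoded, and transcribed in vitro with T7 RNA polymerase for 5 hours at 37°C, and cleavage ran through transcription plus a 15 min DNase I step before EDTA. Illumina sequencing of template-switched reverse transcripts gave the reads, and DNA sequencing mapped the barcodes. Averages come from three batches, using variants with at least 5 reads.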

Variant	self-cleavage
UAACAGGGGGCAACAGCAGAAGCGUCCACGUCGCAGCCCCUGUCAGAUUCUGGUGAAUCUGCGAAUUCUGCUGUAUAUCUA	0.64
UAACAGGGGGCGCCAGCAGAGGCGUUCACGGCGCAGCCCCUGUCAGAUUCUGGUGAAUCUGGGAAUUCUGCCGUAUAUCUC	0.04
UAACAGGGGGCAACAGCAGAAGCGUUCACGUCGCAGCCCCUGCCAGAUUCUGGUGAAUCUGCGAAUUCAGCUGUAUAUCUC	0.35
UAACAGGGGGCAACAGCAGAAGCGUUGACGUCGCAGCCCCUGUCAGCUUCUGGUGGAUCUGCGAAUUCUGCUGUAUAUCUC	0.18
UAACAGGGGGCAACAGUAGAAGCGUUCACUUCGCAGCCCCUGUCAGAUUCUGGUGAAUCUGCGAAUUCUGCUGUAUUUCCC	0.15
UAACAGGGGGCAACAGCAGAAGCGUUCACGUCGCAGCCCCCGUCAGAUUCUGGUGUAUCUGCGAAUUCUGCUGUAUAUCUC	0.68
UAACAGGGGGCAACAGCAGAAGCGUUCACGUCGCAGCCCCUGUCAGAUUCUGGUGAGUCUGCGGAUUCUGCUGUAUAUCUC	0.93
UAACAGGGGGCAACAGCAGAAGCGUCCACGUCGCAGCCCCUGGCAGAUUCUGGUGUAUCCGCGAAUUCUGCUGCAUAUCUC	0.23
UAACAGGGGGCAACAGCAGAAGCGUUCACGUCGCAGCCCCUGCCAGAUUCCGGUGAAUCUGCGAAUUCUGCUGUAUAUCUC	0.82
UAACAGGGGGCAACAGCAGAAGCAUUCACGUAGCAGCCCCUGUCAGAUUCUGGUGAACCUGCGGAUUCAGCUGUAUAUCUC	0.03
UAACAGGGGGCAACAGCAGAAGGGUUCACGUCGCAGCCCCCGUCAGAUCCUGGUGAAUCUGCGAAUACUGCUGUAUAUCUC	0.07
UAACAGGGGGCAACAGCAGAAGCGUUCACGUCGCAGCCCCUGUCAGAUUCUGGUGAAUCCGGGAAUUCUGCUGUAUAUCUC	0.2
UAACAGGGGGCGGCAGCAGAAGCAUCCACGCCGCAGCCCCUGUCAGAUUCUGGUGAAUCUGCGAAUUCUGCUGUAUAUCUC	0.22
UAACAGGGGGCGUCAGCAGAAGCGCACACGUCGCAGCCCAUGUCAGAUUCUGGCGAAUCUGCGAAUUCUGCUGUAUAUCUC	0.15
UAACAGGGGGCAACAGCAGAAGCGUACACGUCACAGCCCCUGUCAGAUUCUGGAGUAUCUGCGAAUUCUGCUGUAUCUCUC	0.08
UAACAGGGGGCAACAGCAGAAGCGUUCACGUCGCAGCCCCCGUCAGAUUCUGGUGAAUCUGCGAAUUCUGCCGUAUACCUC	1.23
UAACAGGGGGCAACAGCAGAAGCGUUCACGUCGCAGCCCCUGUCAGAUUCUGGUGAAUCUGCGAGUUCCGCUGUAUAUCUC	0.31

Variant	self-cleavage
UAACAGGGGGCGUCAGCAGAAGCGCUCACGUCGCAGCCCAUGUCAGAUUCUGGUGAAUCUGCGAAUUCAGCUGCAUAUCUC	0.04
UAACAGGGGGCAACAGCAGAAGCGUUCACGUCGCAGCCCCUGUCAGAUUCUGGUGAGUCUGCGAAUUCUGCUGAAUAUCUC	0.93
UAACAGGGGGCAACAGCAGAAGCGCUCACGUCGCAGCCCCUGUCGGACUCUGGUGAAUCUGCGUACUCUGCUGUAUAUCUC	0.03
UAACAGGGGGCAACAGCAGAAGCGUUCACGUCGCAGCCCCUGUCAGAUUCUGGUGAAUCUGCGAGUUCUGCUGUAUAUAUC	0.79
UAACAGGGGGCAACAGCAGAAGCGUUCAUGUCGCAGCCCAAGUCAGAUUCCGGUGAAUCUGCGAAUUCUGCUGUAUAUCUC	0.19
UAACAGGGGGCAACAGCAGAAGCGUUCACGUCGCAGCCCCUGCCAGAUUCUGGUGAAUCUGCGACUUCUGCUGUAUAUCUC	0.08
UAACAGGGGGCGGCAGCAGAAGCGUACACGUCGCAGCCCCUGUGAGAUUCUGGUGAAUCUGGGAAUUCUGCAGUAUAUCUC	0.07
UAACAGGGGGCAACAGCAGAAGCGAUCACGUCGCAGCCCCUGUCAGAUUCUGGUGAAUCUGCGGAUUCUGCUGUAUAUCUC	0.45
UAACAGGGGGCAACAGCAGAAGCGAUCACGUCGCAGCCCCCGUCAGAUUCUGGUGAAUCUGCGAAUUCUGCUGUAUACCUC	0.14
UAACAGGGGGCAAAAGCAGAAGCGUUCACGUGGCAGCCCCCGUCAGAUUCUGGUGAAUCUGAGAAUUCUGCUGUAUAUCUC	0.06
UAACAGGGGGCAACAGCAGAAGCGCUCACGUCGCAGCCCCUGUCAGAUUCUGGUGAAUCUGCGAAUUCUGCUGUAUACCUC	0.09
UAACAGGGGGCGACUGCAGAAGGGUUCACGUCGCAGCCCCUGUAAGAUUCUGGGGAAUCUGCGGAUUCUGCUGUAUAUCUC	0.03
UAACAGGGGGCAACAGCAGAAGCGUUCACGUCGCAGCCCCUGUCAGAUUCUGGUGAAUCUGCGAGUUCAGCUGUUUAUCUC	0.14
UAACAGGGGGCAACAGCAGAAGCGUUCACGUCGCAGCCCAUGUCAGAUUCUGGAGAACCUGCGAAUUCUGCUGUAUAUCUC	0.09
UAACAGGGGGCAACAGCAGAAGCAUUCACGUCGCAGCCCCUGUCAGAUUCAGGUGAAUCUGCGAAUCCUGCUGUAUAUCUC	0.13
UAACAGGGGGCAACAGCAGAAGCGUACACGUCACAGCCCCUGUCAGAUUCUGGAGAAUCUGCGAAUUCUGCUGUAUCUCUC	0.13
UAACAGGGGGCAACAGCAGAAGCGUUAGCGACGCAGCCCCUGUCAGAUUCUGGGGAAUCUGCGACUACUGCUGUAUAUCUC	0.15
